Values marked as one replicate rest on one cluster of the flow cell; about a third of the high ones do not repeat.
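Further: ATP exposure 15 min at 22 °C before imaging.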

This data set concerns ATP. Kind of data set: switch fluorescence ratio, 500 uM ATP over buffer (Cy3 cluster intensity, sum of 5 cycles each) (fold (ratio)); higher = stronger signal-on switching upon ATP binding; sequences stand for … in TCGTCGGCAGCGTCAGATGTGTATAAGAGACAGTTTTTTTTTTTTTTTTTTTTTTTTT…TC. Particulars: aptamer strand: ATP DNA aptamer (quencher-CACCTGGGGGAGTATTGCGGAGGAAGG + anchor), 100 nM annealed; ATP concentration: 500 uM; one replicate. Summed up: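 Per cluster, summed Cy3 intensity from the target cycles was divided by that from the buffer cycles to give the fluorescence ratio, then averaged per switch-domain sequence. Clusters outside 100-1000 RFU were excluded. The Cy3-labelled switching-strand clusters, on a modified Illumina MiSeq flow-cell, were annealed to 100 nM quencher-labelled ATP aptamer and imaged in selection buffer, then after 15 min with 500 uM ATP at 22 °C, for five cycles with NaOH stripping and re-annealing between them.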
On to AGACGGCCAC, for which the switch fluorescence ratio was 1.46. Under GCCTGGATGA stands 0.968. Take ACACACGGCT: the switch fluorescence ratio was determined as 1.21. For ATATACACTA, the switch fluorescence ratio was 1.11. Under CGGTCGGACC stands 1; under ACACGGTTGC, 1.08; under ATAATGTTTG, 0.998. With CCAGTGGCC, the switch fluorescence ratio was determined as 1.01.

Regarding GGATATTGGT, the switch fluorescence ratio was 1.03.

On to TCCTCAGGCT, for which the switch fluorescence ratio is 1.39. Under CAGTAGTTTG stands 0.953. Under TCCAGCTCAG stands 0.984; under GGTGTAGACA, 0.995; under CGGATACAAG, 0.983. In the case of CCGATAAGC, the switch fluorescence ratio is 2.66. For CTCTAGTGTT, the switch fluorescence ratio came to 1.

For TTACCAGAGC, the switch fluorescence ratio is 1.04. Under GCAGCGGCAT stands 1.03; under GCATGATTAC, 1.35; under TACGTTAGTG, 1.

For TGCTATGTCC, the switch fluorescence ratio stood at 1.09. Take TCAGAAAAGA: the switch fluorescence ratio is 1.07. CAAGTAGTCG: the switch fluorescence ratio was determined as 1.03. Consider ATTCATTAGA, for which the switch fluorescence ratio is 0.978. Under TCTTTTACCG stands 0.971; under GGCTTCTACA, 1.01; under GCAATGTGGG, 1.19.

Regarding TTTAGCGGCC, the switch fluorescence ratio turned out to be 1.01.

As for TACTTTCACG, the switch fluorescence ratio is 1.28. Under TACGAGATCT stands 0.959; under CCAAAAATTA, 0.985; under TGTTTTTTCC, 1.13.

On to AATAATAGA, for which the switch fluorescence ratio was 0.991.

In the case of CATCCTATTG, the switch fluorescence ratio was 1. In the case of TCTAAACGC, the switch fluorescence ratio amounted to 1.03.

As for TTACTCTGCT, the switch fluorescence ratio was 1.28.

Turning to TACATACGGT, the switch fluorescence ratio amounted to 1.45.

Consider TCTTGAGCCG, for which the switch fluorescence ratio stood at 1.08.

Consider CTAAATTGA, for which the switch fluorescence ratio was 0.966. Under AGGGAAGGCC stands 1.01. GCACTTCCCA: the switch fluorescence ratio came out at 1.18. Under TTGGTCACAG stands 0.985; under TAGCATTGTA, 0.988. For the sequence GAGTGTTAC, the switch fluorescence ratio amounted to 1.03. Under TGGCACAATG stands 0.992; under AGTGCTCTCG, 1; under TGCTTGTCTG, 0.997.

In the case of CTCGCACTCA, the switch fluorescence ratio was found to be 1.94. Under ATCTACATGC stands 1.04; under TATTGCTCAG, 0.981; under TAAGTGTCCC, 1.05.

Regarding TCCTAGGA, the switch fluorescence ratio stood at 1.06. Take ACTAGAGCCC: the switch fluorescence ratio was determined as 0.983. Under AGGGAAAAG stands 0.98. Under AGGAGGAACG stands 1.01; under TGAGCCAGCA, 1.03. Under CCTAGTCAAA stands 1.15; under AGCTACGAGC, 1.12; under GCTATTTAGC, 1.1. As for ATGAGAGCAG, the switch fluorescence ratio was found to be 0.981.

On to TGGTCCAAC, for which the switch fluorescence ratio amounted to 0.985. Under ACGAGAGTTA stands 0.996; under TTATCAAGG, 0.984; under GGCCGCGTTT, 1. Under GTCCTCGTAC stands 1.34; under CGGAATCTAA, 1.04; under AGCAAGGCCG, 0.944. Under GCTACGATCT stands 0.988; under CACGTTCCCT, 1.11; under CACCGACTGG, 1.1. ATTACGATGA: the switch fluorescence ratio worked out at 1.

As for ACATCCACGT, the switch fluorescence ratio was found to be 1.43.

In the case of TGGTTGCCAG, the switch fluorescence ratio is 0.958.

Regarding GTGGATATGC, the switch fluorescence ratio worked out at 1.01. Under CTTAATTCTT stands 1.06; under TTATGGAAC, 1.03; under TGAAAGGAGC, 1.06. As for GTCCATTTGT, the switch fluorescence ratio was found to be 1. In the case of CGATGCCGG, the switch fluorescence ratio was 1.01. Under GAATCATAAA stands 0.999; under GGGGCCGCGT, 1.04; under CACGAAAGAA, 1.01. Under ACCAACTGCG stands 1.18; under CATTCATCAA, 1.02.

Take ATTGGATGGC: the switch fluorescence ratio is 1.04. As for AGGACAGCGA, the switch fluorescence ratio was 1.12. Under TAATTGAA stands 0.967; under CCGGAGTGTG, 1.88.

GTTAGTCCTC: the switch fluorescence ratio came out at 1.03. As to CACCATCCGA, the switch fluorescence ratio was 1.25.

Regarding TAATTTATTG, the switch fluorescence ratio stood at 1.02. For the sequence TTACTGGACT, the switch fluorescence ratio is 1.23. For CGTACTTTAC, the switch fluorescence ratio stood at 1.37. Turning to TTTGGCTCCA, the switch fluorescence ratio turned out to be 1. Under TCTGAATTCT stands 1.01; under CGGAGTGTAT, 1.17.

Consider GGCGTTGAGG, for which the switch fluorescence ratio came out at 1.01. Under ATGTGGGAGA stands 1.01; under TGGTCATGTA, 0.975. Under TACCCATCTT stands 2.06; under TATAGCGACC, 1.1. For CATATGGGC, the switch fluorescence ratio came out at 0.99. With TATGATTA, the switch fluorescence ratio amounted to 1.02.

Take AAGGGGATGA: the switch fluorescence ratio is 0.984.

TAAGCGGGAT: the switch fluorescence ratio came to 0.972.

TGAGCCGGAG: the switch fluorescence ratio worked out at 0.955. GGGTACGGTC: the switch fluorescence ratio amounted to 0.979.

For the sequence GTATAACCGC, the switch fluorescence ratio is 1.1.

As for TTTGGTAG, the switch fluorescence ratio was determined as 0.992. Under GCAGTCACCC stands 1.13.

TTCGGAATCG: the switch fluorescence ratio came out at 0.96. Consider ATGCTCGCGA, for which the switch fluorescence ratio amounted to 1.05. Turning to CGGCCGAAGG, the switch fluorescence ratio is 1.05. For CGAATCGTTT, the switch fluorescence ratio stood at 0.991.

In the case of CACAGGCGGC, the switch fluorescence ratio was 1.02. Under ATGTCAATTC stands 1.06.

Regarding TCTAACGCTT, the switch fluorescence ratio worked out at 1.28. Under GCCCCTTCAT stands 1.04; under GATTCAATTT, 0.989; under CAACATTTTT, 0.988.
